{"source": "PubChem BioAssay AID686979", "about": "(National Center for Advancing Translational Sciences (NCATS), 2013)", "note": "The whole screen tested about 420,000 compounds, of which about 50,000 (12%) were called active. Inconclusive results, whose numbers are uncertain, are shown with a selection of clear calls. Calls come from the whole dose curve; as a rule, active = well fitted inhibition curve with a large enough effect; inconclusive = small, poorly fitted or top-dose-only effect; inactive = flat fitted curve, though single readings scatter. Potencies of inconclusive entries are left out as doubtful fits. % is set by controls: 0 for no effect and ±100 for the full control effect; potency is the fitted concentration of half-maximal effect; tags give direction and shape of the fitted curve."}
{"experiment": "qHTS for Inhibitors of human tyrosyl-DNA phosphodiesterase 1 (TDP1): qHTS in cells in presence of CPT; note: nearly all actives have a fitted effect of over 55% in size", "details": "chicken DT40 Tdp1-/-;hTDP1 cells + 20 nM CPT, ATP luminescence, 48 h; activity change, negative = growth inhibition: at 46.2 µM (top of the series)", "how_it_was_run": "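Cell growth measured by CellTiter-Glo luminescence after a minimum 48 h, 37 C compound exposure with 20 nM CPT in Tdp1-knockout DT40 cells stably expressing hTDP1, seeded 400/well; qHTS titration format.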"}
{"smiles": "O=C(CN1C(=O)COc2ccc(S(=O)(=O)N3CCCCCC3)cc21)NCc1ccc(Cl)cc1", "Potency": "inconclusive [inhibitor, single point]"}
{"smiles": "O=C(Cn1cnc2c(cnn2-c2ccccc2)c1=O)Nc1cc(S(=O)(=O)N2CCOCC2)ccc1Cl", "Potency": "inconclusive [inhibitor, single point]"}
{"smiles": "O=C(NC1CC1)C1CCN(c2ncnc3c2sc2cccc(F)c23)CC1", "Potency": "active: 23.1 µM"}
{"smiles": "COc1cc2[nH]c(=O)c(C(=O)NCc3ccccc3Cl)c(O)c2cc1OC", "Potency": "active: 14.6 µM"}
{"smiles": "CCOc1ccccc1C1CC(=O)Nc2cc(OC)c(OC)c(OC)c21", "note": "(stereo not drawn)", "Potency": "inconclusive [inhibitor, single point]"}
{"smiles": "CC(C)(C)c1nc(N2CCN(C(=O)c3ccco3)CC2)c2nnn(Cc3ccccc3)c2n1", "Potency": "inconclusive [inhibitor, single point]"}
{"smiles": "COP(=O)(/C=C/c1ccccc1)C(O)c1ccc(F)cc1", "note": "(stereo not drawn)", "Potency": "inactive"}
{"smiles": "CSc1ccccc1OCc1cc(C(=O)N2CCc3c(Cl)cccc3C2)no1", "Potency": "active: 23.1 µM"}
{"smiles": "Cn1cnnc1SCc1ccc(C(=O)N=Nc2c(O)n(Cc3ccc(Cl)cc3)c3ccccc23)cc1", "Potency": "active: 20.6 µM"}
{"smiles": "COc1cc2c(cc1OC)C(COc1ccccc1OC)N(C(=O)CC(C)C)CC2", "note": "(stereo not drawn)", "Potency": "inconclusive [inhibitor, single point]"}
{"smiles": "Cc1ccccc1NC(=O)NC1(C(=O)N2CCC(O)CC2)CCCCC1", "Potency": "inactive"}
{"smiles": "CC(C)CC(=O)Nc1ccccc1N1CCN(c2ccc(F)cc2)CC1", "Potency": "active: 18.4 µM"}
{"smiles": "O=C(Cc1ccc([N+](=O)[O-])cc1)NCc1ccc2c(c1)OCO2", "Potency": "inactive"}
{"smiles": "O=C(Cn1cccn1)c1ccccc1", "Potency": "inactive"}
{"smiles": "CCCCn1c(O)c2n(c1=O)Cc1ccccc1N=C2c1ccc(OC)cc1", "Potency": "inconclusive [inhibitor, single point]"}
{"smiles": "COCCNc1nc(NCc2ccccc2F)c2sccc2n1", "Potency": "active: 18.4 µM"}
{"smiles": "CCc1ccc(N=C2NC(=O)CC(C(=O)Nc3ccc(OC)cc3)S2)cc1", "note": "(stereo not drawn)", "Potency": "inactive"}
{"smiles": "S=C(N/N=C/c1cccc2ccccc12)Nc1cccc(Cl)c1", "Potency": "inactive"}
{"smiles": "N=C(N)n1ncc2c1CCCC2=O", "Potency": "inactive"}
{"smiles": "CC(C)Cn1c(N)c(C(=O)COC(=O)C2CC(=O)N(Cc3ccccc3Cl)C2)c(=O)n(C)c1=O", "note": "(stereo not drawn)", "Potency": "inconclusive [inhibitor, single point]"}
{"smiles": "Cc1ccccc1NC(=O)c1ccc(CN2CCC(Cc3ccccc3)CC2)cc1", "Potency": "inconclusive [inhibitor, single point]"}
{"smiles": "Cc1nc(SCC(=O)NC(C)(C#N)C2CC2)c2c(-c3cccs3)csc2n1", "note": "(stereo not drawn)", "Potency": "inconclusive [inhibitor, single point]"}
{"smiles": "Cc1c(C(C)C)c(=O)n(-c2ccc(S(=O)(=O)NC(C)C)cc2)n1C", "Potency": "inconclusive [inhibitor, partial curve]"}
{"smiles": "O=C(NC1CCCC1)C(c1ccccn1)N(Cc1ccc(F)cc1)C(=O)c1csnn1", "note": "(stereo not drawn)", "Potency": "inactive"}
{"smiles": "Clc1ccc(Cn2ncc3c(N4CCCCC4)ncnc32)cc1", "Potency": "active: 16.4 µM"}
{"smiles": "CCc1c(C)sc2c1CCN(Cc1cccc(F)c1)C2c1ccccc1", "note": "(stereo not drawn)", "Potency": "inconclusive [inhibitor, single point]"}
{"smiles": "COC(=O)c1ccc2nc3c(cc2c1)[C@@H]1CCN2C(=O)CCC[C@H](C3)[C@H]12", "Potency": "inactive"}
{"smiles": "CCCN(C/C=C\\I)[C@@H]1CCc2cccc(O)c2C1", "Potency": "inconclusive [inhibitor, single point]"}
{"smiles": "CCc1ccc(-c2cn3c(n2)sc2cc(C(=O)NC4CCCCCC4)ccc23)cc1", "Potency": "active: 11.6 µM"}
{"smiles": "Cc1ccc(-c2cc(C(=O)Nc3ccc(S(=O)(=O)Nc4ncccn4)cc3)[nH]n2)c(O)c1C", "Potency": "inconclusive [inhibitor, single point]"}
{"smiles": "c1ccc2nccnc2c1", "Potency": "active: 0.794 µM"}
{"smiles": "CCN(Cc1ccccc1)S(=O)(=O)c1ccc(C(=O)N(CCCN(C)C)c2nc3cc4c(cc3s2)OCCO4)cc1", "Potency": "inconclusive [inhibitor, single point]"}
{"smiles": "CN(C(=O)COC(=O)CSc1ccc([N+](=O)[O-])cc1)c1ccccc1", "Potency": "active: 23.1 µM"}
{"smiles": "CC(=O)N1CCc2cc(CNS(=O)(=O)c3ccc(F)cc3)ccc21", "Potency": "inactive"}
{"smiles": "O=C(Cn1c(=O)c2c(ncn2Cc2ccccc2)n(Cc2ccccc2)c1=O)NC1CC1", "Potency": "inactive"}
{"smiles": "NS(=O)(=O)c1ccc(CCNC(=O)c2ccc(S(=O)(=O)N3CCCCC3)cc2)cc1", "activity change, negative = growth inhibition": "inconclusive: -31.2% [inhibitor]"}
{"smiles": "COc1ccc(-c2csc(C(O)c3ccc(OC)cc3)n2)cc1", "note": "(stereo not drawn)", "Potency": "inconclusive [inhibitor, single point]"}
{"smiles": "O=C1c2cccc(Cl)c2C(=O)N1c1ccccn1", "Potency": "inactive"}
{"smiles": "Cc1ccc(Nc2nc(N)nc(CN3CCN(c4ccccc4F)CC3)n2)cc1", "Potency": "inconclusive [inhibitor, single point]"}
{"smiles": "Cn1c(=O)cc(OCC(=O)N2CCC(N3CCCCC3)CC2)c2ccccc21", "Potency": "inactive"}
{"smiles": "CC(=O)c1ccc(S(=O)(=O)Nc2cccc(-c3ccc(N4CCOCC4)nn3)c2)cc1", "Potency": "inconclusive [inhibitor, single point]"}
{"smiles": "CC(C)c1c(C(=O)NCC(C)(C)N2CCOCC2)cnn1-c1nccc(-c2cccs2)n1", "Potency": "inconclusive [inhibitor, single point]"}
{"smiles": "COCCc1nn2c(=O)cc(COC(=O)c3ccc4c(c3)OCO4)nc2s1", "Potency": "inactive"}
{"smiles": "CC(=O)N1c2ccc(S(=O)(=O)N3CCC(C(=O)NC4CCCC(C)C4C)CC3)cc2CC1C", "note": "(stereo not drawn)", "Potency": "inactive"}
{"smiles": "Cc1ccc(NC(=O)c2cc(C(C)(C)C)nn2Cc2ccccc2)cc1", "Potency": "inconclusive [inhibitor, single point]"}
{"smiles": "Cc1ccc2cc(/C=N/NC(=O)[C@@H]3CCCN3)c(Cl)nc2c1", "Potency": "inconclusive [inhibitor, single point]"}
{"smiles": "Brc1ccc(CSc2nnc(-c3cnccn3)n2Cc2ccco2)cc1", "Potency": "inconclusive [inhibitor, partial curve]"}
{"smiles": "Cc1ccc(S(=O)(=O)c2nc(-c3ccccc3F)oc2N2CCCCC2)cc1", "Potency": "inconclusive [inhibitor, single point]"}
{"smiles": "Cc1ccc(-c2cc(C(=O)NCc3cnn(C)c3C)c3cc(Br)ccc3n2)cc1", "Potency": "inconclusive [inhibitor, single point]"}
{"smiles": "O=[N+]([O-])c1cc2c(cc1/C=N\\NS(=O)(=O)c1ccccc1)OCO2", "Potency": "active: 9.2 µM"}
{"smiles": "COc1ccccc1N(Cc1ccccc1)S(=O)(=O)c1cccc(C(=O)Nc2ncccc2C)c1", "Potency": "inconclusive [inhibitor, single point]"}
{"smiles": "Cc1ccc(NC2=C(c3ccc(C(F)(F)F)cc3)C(=O)c3ccccc32)cc1C", "Potency": "active: 20.6 µM"}
{"smiles": "CC1(C)CC(=Cc2cc(O)ccc2[N+](=O)[O-])C(=O)c2ccccc21", "Potency": "inconclusive [inhibitor, single point]"}
{"smiles": "Cc1ccc(NC(=O)COc2ccc3c(c2)OCO3)c(C)c1", "Potency": "inactive"}
{"smiles": "O=C(Nc1ccc(Cl)cc1)C1CCN(c2nc3ccccc3nc2C(F)(F)F)CC1", "Potency": "inconclusive [inhibitor, full curve]"}
{"smiles": "CC(C)CCN1C(=O)c2ccccc2C1c1nnnn1C(C)C", "note": "(stereo not drawn)", "Potency": "inconclusive [inhibitor, partial curve]"}
{"smiles": "Cc1cccc(-n2c(CNC(=O)Cc3ccccc3)n[nH]c2=S)c1", "Potency": "inactive"}
{"smiles": "O=C(NCC(c1cccnc1)N1CCc2ccccc2C1)c1ccc(F)c(F)c1", "note": "(stereo not drawn)", "Potency": "active: 8.2 µM"}
{"smiles": "CCOC(=O)c1ccccc1NC(=O)CSc1nnc(COc2ccccc2C)n1C", "Potency": "inconclusive [inhibitor, partial curve, poor fit]"}
{"smiles": "Cc1nn(C)c(C)c1CN(C)C(=O)c1cnn2c1NC(c1ccccc1)CC2C(F)(F)F", "note": "(stereo not drawn)", "Potency": "inconclusive [inhibitor, partial curve]"}
{"smiles": "CCOC(=O)CSC1=C(C#N)C(c2ccc3c(c2)OCO3)CC(=O)N1", "note": "(stereo not drawn)", "Potency": "inconclusive [inhibitor, single point]"}
{"smiles": "O=C(NNc1ncccc1Cl)c1c(Cl)cccc1Cl", "Potency": "inconclusive [inhibitor, single point]"}
{"smiles": "O=C(NC1CC1)c1ccc(Cn2c(SCc3cccc(F)c3)nc3cccnc32)cc1", "Potency": "inconclusive [inhibitor, single point]"}
{"smiles": "CCOc1ccccc1-c1nc(C(N)=O)c2[nH]c(=O)n(-c3cccc(C)c3)c2n1", "Potency": "inconclusive [inhibitor, single point]"}
{"smiles": "CCCCOC(=O)Cn1c(=O)c2c(nc(Br)n2Cc2ccccc2)n(C)c1=O", "Potency": "inconclusive [inhibitor, single point]"}
{"smiles": "CCCCOc1ccc(C(=O)OCC(=O)N2CCOCC2)cc1", "Potency": "inactive"}
{"smiles": "CCOc1ccc(C(=O)Nc2ccc(S(=O)(=O)N3C[C@@H]4C[C@@H](C3)c3cccc(=O)n3C4)cc2)cc1", "Potency": "active: 20.6 µM"}
{"smiles": "COc1ccc(NS(=O)(=O)c2cccc(NC(=O)c3cnccn3)c2)cc1Br", "Potency": "active: 16.4 µM"}
{"smiles": "COc1cccc(CNC(=O)c2cc3c(C)nc4ccccc4c3o2)c1", "Potency": "active: 23.1 µM"}
{"smiles": "Cc1ccc(Cl)cc1NC(=O)C1CCN(S(C)(=O)=O)CC1", "Potency": "active: 6.51 µM"}
{"smiles": "CC(C)C(NC(=O)c1ccccn1)c1nnc2n1CCN(Cc1ccc3ccccc3c1)CC2", "note": "(stereo not drawn)", "Potency": "inconclusive [inhibitor, single point]"}
{"smiles": "N#C/C(N=Nc1ccccc1O)=N\\Nc1ccccc1O", "Potency": "active: 20.6 µM"}
{"smiles": "Cc1ccc(NC(=O)[C@@H]2CCCN2S(=O)(=O)c2ccccc2C(F)(F)F)cc1S(=O)(=O)N1CCOCC1", "Potency": "inconclusive [inhibitor, partial curve]"}
